Consider five molecules from patent US20230407304A1, “USE OF MICRORNA INHIBITION TO PREVENT AND TREAT OSTEOARTHRITIS AND OTHER INFLAMMATORY DISEASES” (VIRGINIA COMMONWEALTH UNIVERSITY, priority 2020, published 2023).

Data set [1] deals with rat articular chondrocytes (rArCs). The data set can be described thus: WNT/β-catenin agonist or antagonist treatment of rArCs with or without IL-1β. The class given is cell-based.
Data set [2] shares this test system. The data set is described as follows: WNT/β-catenin agonist or antagonist treatment of rArCs with or without TNF-α. It counts as cell-based.
The test system is the same in data set [3]. The data set can be described thus: Stimulation of rArCs with IL-1β or TNF-α (total DNA, MMP-13, PGE2). The following applies: 10 ng/mL IL-1β or 5 and 10 ng/mL TNF-α, 24 hours. The class given is cell-based. How it is done: FIGS. […] (FIG. 6A) Total DNA was measured from the cell monolayer and (FIG. 6B) MMP-13, and (FIG. 6C) PGE2 proteins were measured from the conditioned media. Groups not sharing a letter (D, C, B or A over bar) are statistically significant using an alpha=0.05.
(§1) Rat articular chondrocytes (rArCs) were isolated using a previously established protocol (see Scott, supra). Briefly, rArCs were isolated from femoral condyles and tibial plateaus from 100-125 g male Sprague Dawley rats. Cartilage was sterilely sliced from the articular surfaces using a surgical blade and placed in Dulbecco's modification of Eagle's medium with 1 g/L glucose, 50 U/mL penicillin and streptomycin (pen-strep) (DMEM). After removing DMEM, cartilage was incubated with 0.05% trypsin (20 mins, 37° C.), rinsed with DMEM (50 U/mL pen-strep, 20 mins, 37° C.), and then digested with sterile-filtered 0.03% collagenase type II solution (Worthington Biochemical, Lakewood, NJ) in Hank's balanced salt solution (16 hrs, 37° C.). Digestion was quenched with an equal volume of DMEM containing 10% fetal bovine serum (FBS) and 50 U/mL pen-strep, strained through a 40 μm strainer (Greiner Bio-one, North Carolina), spun down at 500×g for 10 mins and plated at a seeding density of 15,000 cells/cm^2. These cells are at passage 0. All experiments used cells at passage 1.
(§2) rArCs were plated at a seeding density of 15,000 cells/cm^2 and fed with DMEM supplemented with 10% FBS and 50 U/mL pen-strep. Media were changed 24 hours after plating and then every 48 hours. After treatments described below, conditioned media were collected, centrifuged at 1,000×g for 10 mins to remove cellular debris, aliquoted, and stored at −80° C. until assayed. Cell monolayers were rinsed twice with 1 mL of 1×PBS, lysed in 500 μL of 0.05% Triton X-100, and frozen for later DNA analysis. MMP-13 (ANASpec, Fremont, CA) and PGE2 (R&D Systems) were measured in the conditioned media by a microplate reader at ex/em 490 nm/520 nm, and 450 nm absorbance, respectively, in accordance with the manufacturer's directions. Data were normalized to the DNA content of the cell monolayer. Cell layers were thawed, and mechanically lysed by ultrasonication (40V, 10s/well) (VCX-120; Vibra-cell, Newtown, CT) and DNA was measured using QuantiFluor dsDNE system kit (Promega, Madson, WI) and quantified on a fluorescence plate reader at ex/em 504 nm/531 nm.
Data are from single experiments and are represented as mean±standard error (n=6 independent cultures per variable). Each experiment was repeated independently a minimum of two times to ensure the validity of the results. A one-way analysis of variance was performed followed by a two-tailed Tukey correction using an alpha equal to 0.05 as denoted by letters. […]

Data set [4] shares this test system. The data set is described as follows: miR mimic or inhibitor transfection of rArCs with or without TNF-α stimulation. It counts as cell-based. The conditions noted are these: 14.5 nM mimic 24 hours, then with or without 10 ng/mL TNF-α 24 hours. How it is done:
FIGS. 7A-7F show assessment of miR-122 and miR-451 transfection or inhibition on TNF-α stimulated rat articular chondrocytes. rArCs were transfected at 60% confluence with miR-122, miR-451, miR-122-inhibitor (122-Inh), miR-451 inhibitor (451-Inh), or an empty vehicle (Lipo) for 24 hours followed by 24 hours with or without 10 ng/mL TNF-α stimulation. (FIG. 7A, 7D) Total DNA was measured from the cell monolayer and (FIG. 7B, 7E) MMP-13 and (FIG. 7C, 7F) PGE2 proteins were measured from the conditioned media. Groups not sharing a letter (A, B or C over bar) are statistically significant using an alpha=0.05.
as §1
as §2, with “nm. […]” for “nm.”

The test system of data set [5] is articular chondrocytes. The data set can be described thus: miR-122 / miR-451 transfection of articular chondrocytes in presence and absence of IL-1β. The class given is cell-based, rat. The conditions noted are these: no IL-1β. The text has this: The following Examples with these microRNAs established their functions in articular chondrocytes in the presence and absence of the inflammatory cytokine IL-1β. Since IL-1β signaling is a major contributor of OA, a well-established model of creating an osteoarthritic phenotype in vitro is to stimulate cell cultures with this cytokine. This study first established that both these microRNAs were elevated in OA in the bilateral ACLT model.
The miR-451 miR (SEQ ID NO:10) was originally chosen as a control miR but it had surprising and very specific functions. […] A series of transfections and inhibition experiments with these microRNAs confirmed that these changes were due to the microRNAs themselves.

Where [6] appears, read: compound alone, increasing concentrations, no IL-1β.

On to `Oc1nc(-c2ccc(C(F)(F)F)cc2)nc2c1CSCC2` [XAV, XAV-939], for which the MMP-13 production entry in data set [1] (setting [6]) is “no differences in MMP-13 or PGE2 production”; in data set [1] (compound plus 10 ng/mL IL-1β), “synergist increases in both MMP-13 and PGE2”; in data set [2] (0.5 μM XAV plus 10 ng/mL TNF-α), “decreased the TNF-α-stimulated increase in MMP-13”; in data set [2] (1 μM XAV plus 10 ng/mL TNF-α), “this effect was not present”; in data set [2] (compound alone, no TNF-α), “did not change MMP-13 production compared to control levels”. The PGE2 production entry was “no differences in MMP-13 or PGE2 production” in data set [1] (setting [6]); “synergist increases in both MMP-13 and PGE2” in data set [1] (compound plus 10 ng/mL IL-1β); “caused increases in both the 0.5 μM and 1 μM XAV groups” in data set [2] (compound alone, no TNF-α); “acted synergistically” in data set [2] (compound plus 10 ng/mL TNF-α). In data set [1] (compound plus 10 ng/mL IL-1β), the “total DNA” value was “slight decrease in total DNA”.

Take “IL-1β: inflammatory cytokine (Peprotech) used to stimulate chondrocyte cultures”: in data set [3], the “MMP-13 production (conditioned media)” value is on record as “An increase was seen in MMP-13 production” and the “PGE2 production (conditioned media)” value was “significantly increased PGE2 production compared to control levels”.

Consider TNF-α, for which, in data set [3], the “MMP-13 production (conditioned media)” value is “significant increase in MMP-13 production compared to both IL-1β treated and control groups”; the “PGE2 production (conditioned media)” value is “significantly increased PGE2 production compared to control levels”.

For “miR-122: mirVana miRNA mimic rno-miR-122-5p; UGGAGUGUGACAAUGGUGUUUG (UGGAGUGUGACAAUGGUGUUUG; listed as RNA, chemistry not given here)”, in data set [4], the “MMP-13 production after mimic transfection” value was “prevented the TNF-α-stimulated increase in MMP-13 production” and the “PGE2 production after mimic transfection” value was “did decrease PGE2 production compared to the TNF-α stimulated control”.

“miR-451: mirVana miRNA mimic rno-miR-451-5p; AAACCGUUACCAUUACUGAGUU (AAACCGUUACCAUUACUGAGUU; listed as RNA, chemistry not given here)”: in data set [4], the “MMP-13 production after mimic transfection” value was “did not change MMP-13 or PGE2 levels” and the “PGE2 production after mimic transfection” value is recorded as “did not change MMP-13 or PGE2 levels”. The “MMP-13 and PGE2 production in the absence of IL-1β” value in data set [5] is listed as “did not encourage these responses”.
